Test results: the supplement of paper PMC12889115
The list shows a part of the results. Rule as the data show it: active = 25% or less and inactive = the rest. Single values are uncertain, as repeats are few or missing.

Tests used:
[1] = system: Salmonella enterica serovar Typhimurium SL1344; assay: bacterial growth OD600 after 18 h in MHB with 0.5 µg/mL polymyxin B; higher = more bacterial growth (less inhibition); conditions: 25 µM; polymyxin B 0.5 µg/mL; system: broth
Protocol: (§1)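 Secondary screen of the 553 primary hits at 25 µM. (i) S. Typhimurium SL1344 grown in Mueller-Hinton broth with 0.5 µg/mL polymyxin B, OD600 read after 18 h. (ii) SAFIRE assay: RAW 264.7 macrophages infected with S. Typhimurium sifB::gfp (MOI 30); compound added 2 h post-infection; cells fixed at 18 h; GFP-positive pixel fraction per macrophage imaged by confocal microscopy and expressed as % of DMSO control.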

[2] = system: Salmonella enterica serovar Typhimurium SL1344; assay: intramacrophage bacterial GFP load (SAFIRE), percent of DMSO control (% of DMSO); higher = more intracellular bacteria (less inhibition); conditions: 25 µM; system: infected RAW 264.7 macrophages
Protocol: as §1
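For bacterial growth OD600 after 18 h in MHB with 0.5 µg/mL polymyxin B in this document: polymyxin B level opens the outer membrane while sparing the inner membrane, with novobiocin wells as reference growth inhibitor.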
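For intramacrophage bacterial GFP load (SAFIRE), percent of DMSO control in this document: compounds tested were the hits of an earlier 50 µM broth growth screen of a drug-like diversity library run with polymyxin B.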

| SMILES | bacterial growth OD600 [1] | intramacrophage bacterial GFP load [2] |
| --- | --- | --- |
| COc1ccc2c(c1)SC(c1ccc3c(c1)OCO3)CCN2Cc1ccsc1 (stereo not drawn) | 0.006 | inactive: 94.7 |
| c1ccc(Cc2noc(-c3ccc(NC4CCSC4)nc3)n2)cc1 (stereo not drawn) | 0.002 | inactive: 126 |
| CN(Cc1n[nH]c2c1CCCCC2)C(=O)CC1(c2ccc(-c3ccccc3)cc2)CC(=O)N(C)C1=O (stereo not drawn) | -0.002 | inactive: 91.1 |
| CCc1ocnc1C(=O)NC1CC(=O)N(CCc2cccc(Cl)c2)C1 (stereo not drawn) | 0.633 | inactive: 100 |
| O=C(c1cccc2ccccc12)C1CCCN(C(=O)c2ccc3c(c2)OCO3)C1 (stereo not drawn) | 0.002 | inactive: 114 |
| COc1ccccc1CCC(=O)Nc1cnn(CC(=O)NC(C)c2nc(-c3ccccc3)no2)c1 (stereo not drawn) | 0.442 | inactive: 130 |
| C=CC[C@@H]1CC=C[C@@H](c2ccccc2)N1C(=O)CCC1(Cc2ccc(SC)cc2)CCC(=O)N1 (stereo partly drawn) | 0.001 | inactive: 100 |
| CCOC(=O)C1CCCCN1C(=O)c1cn(C(c2ccccc2)c2ccccc2)nn1 (stereo not drawn) | 0.068 | inactive: 93.7 |
| O=C(C1CCCC1)N1CCCC(CCc2ccccc2F)C1 (stereo not drawn) | 0.003 | inactive: 44.1 |
| CCC(Nc1nc2nonc2nc1N1CCOCC1)c1cccs1 (stereo not drawn) | 0 | inactive: 63.5 |
| CN(C(=O)CC1(c2ccc(-c3ccccc3)cc2)CC(=O)N(C2CC2)C1=O)C1CCOCC1 (stereo not drawn) | 0.003 | inactive: 101 |
| O=S(=O)(c1ccccc1Cl)N1CCCC(CO)(Cc2cccc(Cl)c2)C1 (stereo not drawn) | 0.015 | inactive: 76.2 |
| CCOC(=O)C1(CCc2ccccc2)CCCN(Cc2nccn2CC)C1 (stereo not drawn) | 0.002 | active: 10.8 |
| Cc1csc(CN(C)C(=O)c2csc3nc(-c4cccc(Cl)c4)cn23)n1 | 0.001 | inactive: 150 |
